# Data published in the supplement of paper PMC8728848.
# Some of the results follow.
# B1: Epa1-NP-mutant-Y228W (Candida glabrata), Q6VBJ0 (protein)
# chain: MILNPALFLNKCVCIYTTLILLLLTNGGYATSSNDISLASKDPTTFPLGCSPDITTPKKGLSMELYSYDFRKKGSYPCWDAAYLDPNYPRTGYKSHRLLAKVDGVTGNINFYYHATKGCTPQLGHLPASYNYPKPLTMTNFTMLLYGYFRPKVTGFHTFTISADDLLFVNFGAGNAFDCCRRDSSADHFGNYQAYAIWGSKTAKDELTVHLDAGVYYPIRLFYNNREWDGALSFTFKTESNENTVSDFSEYFFSLDDTEEGCPGLISYDSSCASVKTSKIIGIDYHTETPNENLVPITKTIYHLGIPCTGTTTTPLCGSGFYDPLANKCVTINTSSTSSVTKTTSHTTSKEVSFHSSISSQKTLIPKSIPSPYGPIKSQSIPTEMETSSEISSSEYAFSDVISTPSHSPYTKKHSSLNSSSYTSTVIHSLTSYSISQGIFSTSLSEQNITSKSSTDKFSTATSMSNNITQSSIIISQFSTNNENYTTTSMHTSSDKISTETLNNSISTTTSILFSNSSTILKNNTTIISSDKDTHYHPVNPTIVCSTNKTEIICASITQPSISNSNNHWSSSVLKFNSTTVRSTLPSSAGSNETSINVPFSSSTESNTSTSSTSTSNSKMVRSTLPSSAGSNETSISVPFSSSTESNTSTSSTSTSNSKMVRSTLPSSAGSNETSINVPFSSSTESNTSTSSTSTSNSKTVRSTPFSSAGIIMTSLSQRNNKSASSYASSNSKCYNTADSCRKVHSTPSYLLTSSYTSEGVDYDCSLVSTKLKINDTNCVNNKHTTKSCLKTSVTTTIPTLEIKTARKSSSNTIGLHSYPTSSPNKSISSAPIIGYISSFKTIKTASPSYQTSDLTTITTITSLNNPGSTAVENTHESNDKSRKTSSNDISSKHSVIKETKDAVESSNKSHQTNTLKCSSIIIASSSHNSYESLGGTTLTLTLSKVYSPQNNDTLPFLEISEVNPSRTVLPESSKMMQYLTSTEERNKTARNTIATNIVSISTFHFEGEGNAIRMGYTQLLLMLIGIIVMNIGT
# Assays:
# Assay in all cases: glycan array binding signal (z-score within array); higher = stronger binding
# Details in all cases: glycan notation: IUPAC condensed, linker removed; mutation: Y228W
# [1] = target: Neu5Ac(a2-6)Gal(b1-4)GlcNAc(b1-2)Man(a1-3)[GlcNAc(b1-4)][Neu5Ac(a2-6)Gal(b1-4)GlcNAc(b1-2)Man(a1-6)]Man(b1-4)GlcNAc(b1-4)GlcNAc
# How it was run: (§1)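 The binding signal is a Z-score computed within each array and averaged over linkers. Arrays of the same protein sequence at different concentrations or buffers were also averaged together. Data originate from 3228 arrays in the Consortium for Functional Glycomics database, kept only where the protein sequence was available.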
# [2] = target: Neu5Ac(a2-6)Gal(b1-4)GlcNAc(b1-2)Man(a1-3)[Man(a1-6)]Man(b1-4)GlcNAc(b1-4)GlcNAc
# How it was run: as §1
# [3] = target: Neu5Ac(a2-6)Gal(b1-4)GlcNAc(b1-2)Man(a1-3)[Neu5Ac(a2-3)Gal(b1-4)GlcNAc(b1-2)Man(a1-6)]Man(b1-4)GlcNAc(b1-4)GlcNAc
# How it was run: as §1
# [4] = target: Neu5Ac(a2-6)Gal(b1-4)GlcNAc(b1-2)Man(a1-3)[Neu5Ac(a2-6)Gal(b1-4)GlcNAc(b1-2)Man(a1-6)]Man(b1-4)GlcNAc(b1-4)GlcNAc
# How it was run: as §1
# [5] = target: Neu5Ac(a2-6)Gal(b1-4)GlcNAc(b1-2)Man(a1-3)[Neu5Ac(a2-6)Gal(b1-4)GlcNAc(b1-2)Man(a1-6)]Man(b1-4)GlcNAc(b1-4)[Fuc(a1-6)]GlcNAc
# How it was run: as §1
# [6] = target: Neu5Ac(a2-6)Gal(b1-4)GlcNAc(b1-2)Man(a1-6)Man(b1-4)GlcNAc(b1-4)GlcNAc
# How it was run: as §1
# [7] = target: Neu5Ac(a2-6)Gal(b1-4)GlcNAc(b1-2)Man(a1-6)[Gal(b1-4)GlcNAc(b1-2)Man(a1-3)]Man(b1-4)GlcNAc(b1-4)GlcNAc
# How it was run: as §1
# [8] = target: Neu5Ac(a2-6)Gal(b1-4)GlcNAc(b1-2)Man(a1-6)[GlcNAc(b1-2)Man(a1-3)]Man(b1-4)GlcNAc(b1-4)GlcNAc
# How it was run: as §1
# [9] = target: Neu5Ac(a2-6)Gal(b1-4)GlcNAc(b1-2)Man(a1-6)[Man(a1-3)]Man(b1-4)GlcNAc(b1-4)GlcNAc
# How it was run: as §1
# [10] = target: Neu5Ac(a2-6)Gal(b1-4)GlcNAc(b1-2)[Neu5Ac(a2-6)Gal(b1-4)GlcNAc(b1-4)]Man(a1-3)[GlcNAc(b1-4)][Neu5Ac(a2-6)Gal(b1-4)GlcNAc(b1-2)[Neu5Ac(a2-6)Gal(b1-4)GlcNAc(b1-6)]Man(a1-6)]Man(b1-4)GlcNAc(b1-4)GlcNAc
# How it was run: as §1
# [11] = target: Neu5Ac(a2-6)Gal(b1-4)GlcNAc(b1-2)[Neu5Ac(a2-6)Gal(b1-4)GlcNAc(b1-4)]Man(a1-3)[GlcNAc(b1-4)][Neu5Ac(a2-6)Gal(b1-4)GlcNAc(b1-4)Man(a1-6)]Man(b1-4)GlcNAc(b1-4)GlcNAc
# How it was run: as §1
# [12] = target: Neu5Ac(a2-6)Gal(b1-4)GlcNAc(b1-2)[Neu5Ac(a2-6)Gal(b1-4)GlcNAc(b1-6)]Man(a1-6)[Neu5Ac(a2-6)Gal(b1-4)GlcNAc(b1-2)Man(a1-3)][GlcNAc(b1-4)]Man(b1-4)GlcNAc(b1-4)GlcNAc
# How it was run: as §1
# [13] = target: Neu5Ac(a2-6)Gal(b1-4)GlcNAc(b1-3)Gal(b1-3)GlcNAc
# How it was run: as §1
# [14] = target: Neu5Ac(a2-6)Gal(b1-4)GlcNAc(b1-3)Gal(b1-4)GlcNAc
# How it was run: as §1
# [15] = target: Neu5Ac(a2-6)Gal(b1-4)GlcNAc(b1-3)Gal(b1-4)GlcNAc(b1-2)Man(a1-3)[Neu5Ac(a2-6)Gal(b1-4)GlcNAc(b1-3)Gal(b1-4)GlcNAc(b1-2)Man(a1-6)]GalNAc
# How it was run: as §1
# [16] = target: Neu5Ac(a2-6)Gal(b1-4)GlcNAc(b1-3)Gal(b1-4)GlcNAc(b1-3)Gal(b1-4)GlcNAc
# How it was run: as §1
# [17] = target: Neu5Ac(a2-6)Gal(b1-4)GlcNAc(b1-3)Gal(b1-4)GlcNAc(b1-3)Gal(b1-4)GlcNAc(b1-2)Man(a1-3)[Neu5Ac(a2-6)Gal(b1-4)GlcNAc(b1-3)Gal(b1-4)GlcNAc(b1-3)Gal(b1-4)GlcNAc(b1-2)Man(a1-6)]GalNAc
# How it was run: as §1
# [18] = target: Neu5Ac(a2-6)Gal(b1-4)GlcNAc(b1-3)Gal(b1-4)GlcNAc(b1-3)GalNAc
# How it was run: as §1
# [19] = target: Neu5Ac(a2-6)Gal(b1-4)GlcNAc(b1-3)Gal(b1-4)GlcNAc(b1-3)[Neu5Ac(a2-6)Gal(b1-4)GlcNAc(b1-3)Gal(b1-4)GlcNAc(b1-6)]GalNAc
# How it was run: as §1
# [20] = target: Neu5Ac(a2-6)Gal(b1-4)GlcNAc(b1-3)Gal(b1-4)GlcNAc(b1-6)[Gal(b1-3)]GalNAc
# How it was run: as §1
# [21] = target: Neu5Ac(a2-6)Gal(b1-4)GlcNAc(b1-3)Gal(b1-4)[Fuc(a1-3)]GlcNAc(b1-3)Gal(b1-4)[Fuc(a1-3)]GlcNAc
# How it was run: as §1
# [22] = target: Neu5Ac(a2-6)Gal(b1-4)GlcNAc(b1-3)GalNAc
# How it was run: as §1
# [23] = target: Neu5Ac(a2-6)Gal(b1-4)GlcNAc(b1-3)[Neu5Ac(a2-6)Gal(b1-4)GlcNAc(b1-6)]GalNAc
# How it was run: as §1
# [24] = target: Neu5Ac(a2-6)Gal(b1-4)GlcNAc(b1-6)GalNAc
# How it was run: as §1
# [25] = target: Neu5Ac(a2-6)Gal(b1-4)GlcNAc(b1-6)[Gal(b1-3)GlcNAc(b1-3)]Gal(b1-4)Glc
# How it was run: as §1
# [26] = target: Neu5Ac(a2-6)Gal(b1-4)GlcNAc(b1-6)[Gal(b1-3)]GalNAc
# How it was run: as §1
# [27] = target: Neu5Ac(a2-6)Gal(b1-4)GlcNAc6S
# How it was run: as §1
# Neu5Ac(a2-6)GalNAc = target: Neu5Ac(a2-6)GalNAc
# How it was run: as §1
# [28] = target: Neu5Ac(a2-6)GalNAc(b1-4)GlcNAc
# How it was run: as §1
# [29] = target: Neu5Ac(a2-6)GalNAc(b1-4)GlcNAc6S
# How it was run: as §1
# [30] = target: Neu5Ac(a2-6)GlcNAc(b1-4)GlcNAc
# How it was run: as §1
binder,measurement,setting,value
B1,glycan array binding signal (z-score),[1],-0.08
same,glycan array binding signal (z-score),[2],0.235
same,glycan array binding signal (z-score),[3],-0.168
same,glycan array binding signal (z-score),[4],-0.111
same,glycan array binding signal (z-score),[5],-0.238
same,glycan array binding signal (z-score),[6],-0.196
same,glycan array binding signal (z-score),[7],-0.14
same,glycan array binding signal (z-score),[8],-0.279
same,glycan array binding signal (z-score),[9],-0.244
same,glycan array binding signal (z-score),[10],-0.298
same,glycan array binding signal (z-score),[11],-0.028
same,glycan array binding signal (z-score),[12],0.12
same,glycan array binding signal (z-score),[13],-0.123
same,glycan array binding signal (z-score),[14],-0.311
same,glycan array binding signal (z-score),[15],0.042
same,glycan array binding signal (z-score),[16],-0.116
same,glycan array binding signal (z-score),[17],0.26
same,glycan array binding signal (z-score),[18],-0.181
same,glycan array binding signal (z-score),[19],-0.101
same,glycan array binding signal (z-score),[20],-0.114
same,glycan array binding signal (z-score),[21],-0.074
same,glycan array binding signal (z-score),[22],-0.194
same,glycan array binding signal (z-score),[23],-0.269
same,glycan array binding signal (z-score),[24],0.104
same,glycan array binding signal (z-score),[25],0.054
same,glycan array binding signal (z-score),[26],-0.013
same,glycan array binding signal (z-score),[27],-0.214
same,glycan array binding signal (z-score),Neu5Ac(a2-6)GalNAc,-0.281
same,glycan array binding signal (z-score),[28],-0.458
same,glycan array binding signal (z-score),[29],-0.172
same,glycan array binding signal (z-score),[30],-0.241
